ChEMBL document CHEMBL1201862, “PubChem BioAssay data set” (2004)
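Following 48 hours of exposure in 96-well plates, responses at five concentrations were used to interpolate endpoints linearly. The concentration for 50% growth inhibition is given as GI50.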 Active and inactive are the calls of the source. No stated cut-off is given here; in the data, active = GI50 up to about 1.1 µM and inactive = higher.

These compounds were tested on NCI-H322M (assay: inhibition of tumour cell growth, NCI panel, 48 h).
In the case of `CN(C)Cc1cc(C(C)(C)C)cc(CN(C)C)c1O`, the GI50 is reported as inactive: 69.2 µM. In the case of `O=C(O)c1nn(-c2ccccc2-c2nnc(O)nc2O)c(=O)[nH]c1=O`, the GI50 is reported as inactive: > 100 µM. `CCO[C@@H]1OC(=O)[C@@](C)(C(C)=O)[C@@H]1C` was tested, and the GI50 was inactive: 16.1 µM. In the case of `O=C(O)c1ccccc1NC(c1ccccc1)c1ccc2cccnc2c1O` (stereo unspecified), the GI50 is reported as inactive: 4.28 µM. For `CCOP1(=O)C=C(Sc2ccc([N+](=O)[O-])cc2[N+](=O)[O-])C(C)(C)O1` (stereo unspecified), the GI50 was inactive: 21.1 µM. `COc1cccc2c(=O)oc(-c3ccccc3C)nc12` was tested, and the GI50 was inactive: 79.3 µM. With `CN1C(=O)C(c2c[nH]c3ccccc23)N(C)C(=O)C1c1c[nH]c2ccccc12` (stereo unspecified) the GI50 was inactive: > 100 µM. In the case of `Nc1nc(Cl)c2ncn(Cc3ccccc3CCl)c2n1`, the GI50 is reported as inactive: 12.4 µM. `COc1ccc(/C=C2\NC(=S)N(CN3CCCCC3)C2=O)cc1` was tested, and the GI50 was inactive: > 100 µM. In the case of `CC(C)(C)c1cc(C(C)(C)C)c(SS(=O)(=O)O)c(O)c1O`, the GI50 is reported as inactive: 33.6 µM. In the case of `COc1cc(O)c2c(c1)OCC(Cc1ccc(O)cc1)C2=O` (stereo unspecified), the GI50 is reported as inactive: > 100 µM. `CCOP(=O)(OCC)/C(=C\n1ccc(=O)[nH]c1=S)C(=O)OC` was tested, and the GI50 was inactive: > 100 µM. With `CCOC(=O)c1nc2cc(C(F)(F)F)ccc2nc1Nc1ccc(C(=O)OC)s1` the GI50 was inactive: 51.3 µM. In the case of `O=C(CCN1CCOCC1)c1ccc(Oc2ccc(F)cc2)cc1`, the GI50 is reported as inactive: > 100 µM. `Cc1nc(O)nc(N(CCO)/N=C/c2ccc(Cl)cc2)c1C(=O)Nc1ccc(Cl)cc1` was tested, and the GI50 was inactive: > 100 µM. In the case of `O=C(CC/C(CC(=O)c1ccc(Cl)cc1)=N\O)Nc1cccc(Cl)c1`, the GI50 is reported as inactive: > 100 µM. In the case of `NC(=S)NN=Cc1ccccc1OCc1cccc(COc2ccccc2C=NNC(N)=S)n1`, the GI50 is reported as inactive: 9.66 µM. In the case of `O=C1[C@H]2ON(c3ccccc3)C(c3ccc(Cl)cc3Cl)[C@H]2C(=O)N1c1ccc(Cc2ccc(N3C(=O)[C@@H]4ON(c5ccccc5)C(c5ccc(Cl)cc5Cl)[C@@H]4C3=O)cc2)cc1` (stereo partly specified), the GI50 is reported as inactive: > 100 µM. With `CCOC(=O)CCSS(=O)(=O)c1ccccc1` the GI50 was inactive: > 100 µM. In the case of `C/C(=N\Nc1nc2cccnc2s1)c1ccccn1`, the GI50 is reported as active: 0.0598 µM. For `COc1cc(Nc2nc3ccccc3nc2-c2cccs2)cc(OC)c1OC`, the GI50 was inactive: 52.1 µM. With `CC1(c2nc3cc(Cl)c(Cl)cc3[nH]2)CCC(CO)C(C)(C)O1` (stereo unspecified) the GI50 was inactive: 51.4 µM. In the case of `COC(=O)[C@](NC(=O)OCc1ccccc1)([C@@H](C)Sc1ccc(C)cc1)C(F)(F)F`, the GI50 is reported as inactive: > 100 µM. With `O=C(Cc1ccc(Cl)c(Cl)c1)N(CCc1ccc(Cl)c(Cl)c1)CCN1CCCC1` the GI50 was inactive: 2.72 µM. `CC1CCCCN1CC(=O)c1ccc2c(c1)Sc1ccccc1O2` (stereo unspecified) was tested, and the GI50 was inactive: 13.6 µM. In the case of `COc1ccc(-c2c(N)n(-c3cccc(C(=O)O)c3)c(=O)c3cc([N+](=O)[O-])ccc23)cc1`, the GI50 is reported as inactive: > 100 µM. For `O=c1[nH]c(=O)n(C2CC(O)C(CO)O2)cc1C(F)(C(F)(F)F)C(F)(F)F` (stereo unspecified), the GI50 was inactive: > 100 µM. `O=c1ccn(C2OC(CO)C(P(=O)(O)O)C2O)c(=O)[nH]1` (stereo unspecified) was tested, and the GI50 was inactive: > 100 µM. For `CCOC(=O)/C(C(=O)Nc1ccc(F)cc1)=C(/N)N1CCOCC1`, the GI50 was inactive: > 100 µM. For `O=C(O)CCSC(=O)Nc1ccccc1`, the GI50 was inactive: > 100 µM. With `CC(C)=Cc1cc(C(=O)NCCNC(=O)c2cc(C=C(C)C)nc(NC#N)n2)nc(NC#N)n1` the GI50 was inactive: > 100 µM. For `N#CC1C(=O)NC(=O)C(C#N)C1c1ccc(Cl)c(Cl)c1` (stereo unspecified), the GI50 was inactive: > 100 µM. With `O=c1oc(=O)c2oc3ccccc3oc1=2` the GI50 was inactive: > 100 µM. With `C=C(Br)N(CC)CC` the GI50 was inactive: > 100 µM. With `CC(=O)Nc1ccc2cc(C#N)c(=O)[nH]c2n1` the GI50 was inactive: > 100 µM. `c1ccc2c(c1)OCCOCCOc1ccccc1OCCO2` was tested, and the GI50 was inactive: > 100 µM. In the case of `Nc1c(C(=O)O)nnc2cc(Cl)c(Cl)cc12`, the GI50 is reported as inactive: > 100 µM. With `N#Cc1cccnc1Cl` the GI50 was inactive: > 100 µM. In the case of `COc1ccc2c(c1)C1OCCNC1CC2` (stereo unspecified), the GI50 is reported as inactive: > 100 µM. With `C[C@H](N)C(=O)Nc1ccc(-c2nc3ccccc3s2)cc1Cl` the GI50 was inactive: 14 µM. For `CC/C(=N\NC(=O)c1cccnc1)c1ccc2c(c1)OCCO2`, the GI50 was inactive: > 100 µM. `Nc1nc2c(c(=O)[nH]1)NC(CO)CN2` (stereo unspecified) was tested, and the GI50 was inactive: > 100 µM. In the case of `CN1CCC(SC2Cc3cc(Cl)ccc3Sc3ccccc32)CC1` (stereo unspecified), the GI50 is reported as inactive: 13.2 µM. `Cn1ncc(=S)[nH]c1=S` was tested, and the GI50 was inactive: > 100 µM. In the case of `CC1=C(C(=O)Nc2ccccc2)C(c2ccc(Cl)c(Cl)c2)C(C(=O)Nc2ccccc2)=C(C)N1`, the GI50 is reported as inactive: 15.7 µM. For `N#Cc1ccccc1NC(=O)/C(=N\NC(=O)c1ccncc1)C(c1cnc2ccc([N+](=O)[O-])cc2n1)[N+](=O)[O-]` (stereo unspecified), the GI50 was inactive: > 100 µM. `Cc1cnc(NCCCN(C)C)c2c1[nH]c1ccc3cc(O)ccc3c12` was tested, and the GI50 was active: 0.419 µM. For `Cc1cc2c(c(C(=O)O)c1C)-c1cccc(Cl)c1C2=O`, the GI50 was inactive: > 100 µM. `O=C1c2ccccc2C2(O)Nc3c(ccc4ccccc34)C12O` (stereo unspecified) was tested, and the GI50 was inactive: > 100 µM. With `CCOC(=O)C1(C(=O)OCC)C=C(c2ccccc2)N(C2OC(COC(C)=O)C(OC(C)=O)C(OC(C)=O)C2OC(C)=O)C1=S` (stereo unspecified) the GI50 was inactive: > 100 µM. For `Cc1ccc(C)c(NC(=O)CCc2n[nH]c(=S)o2)c1`, the GI50 was inactive: > 100 µM. With `COc1nc(NC2OC(COC(C)=O)C(OC(C)=O)C(OC(C)=O)C2OC(C)=O)c2c(OC(C)=O)c(C)c(=O)oc2n1` (stereo unspecified) the GI50 was inactive: > 100 µM. `c1ccc(CN2CCCCC(Sc3ccccc3)CC2)cc1` (stereo unspecified) was tested, and the GI50 was inactive: > 100 µM. For `Nc1nc(N)c2ncn(Cc3c(Cl)cccc3Cl)c2n1`, the GI50 was inactive: > 100 µM. For `C/C(CC(=O)Nc1ccccc1[N+](=O)[O-])=N\NC(N)=O`, the GI50 was inactive: > 100 µM. In the case of `O=c1ccn2n1Cc1ccccc1C2`, the GI50 is reported as inactive: > 100 µM. For `COC(=O)c1cncc2c1CC1C3(C(=O)OC)C=NC(C4C(CO)=CCC43)C21C` (stereo unspecified), the GI50 was inactive: > 100 µM. In the case of `CN1CCN(C(=S)N(C(=O)c2cccs2)c2ccccc2)CC1`, the GI50 is reported as inactive: > 100 µM. In the case of `CCCCC1(C(NC(=O)c2ccccc2Cl)c2ccncc2)C(=O)N(c2ccccc2)N(c2ccccc2)C1=O` (stereo unspecified), the GI50 is reported as inactive: > 100 µM. In the case of `CSc1cc(Cl)c(C(=O)Nc2ccccc2)cc1S(=O)(=O)n1ccnc1O`, the GI50 is reported as inactive: > 100 µM. With `Cc1c(O)c(=O)ccn1CCc1ccc(O)cc1` the GI50 was inactive: 22.2 µM. In the case of `O=C(NNc1cn[nH]c(=O)n1)c1cccc2nc3ccccc3nc12`, the GI50 is reported as inactive: 38.6 µM. `Clc1nc(Cl)c(Cl)c(-c2ccccc2)n1` was tested, and the GI50 was inactive: 16.8 µM. For `O=C(/C=C/c1ccc(C(F)(F)F)cc1)c1c([O-])on[n+]1-c1ccccc1`, the GI50 was inactive: 9.77 µM. With `COc1cccc(Nc2nc(N)nc(N)c2N=O)c1` the GI50 was inactive: 15.1 µM. With `CCOC(=O)c1cc([N+](=O)[O-])c(Sc2ncnc3nc[nH]c23)c([N+](=O)[O-])c1` the GI50 was inactive: 5.93 µM. With `COC(=O)C1=C(C)NC(C)=C(C(=O)OC)C1c1ccc(/[N+]([O-])=C/c2ccccc2)cc1` the GI50 was inactive: > 100 µM. In the case of `N#C/N=C(/NCCc1c[nH]c2ccccc12)Oc1ccccc1`, the GI50 is reported as inactive: > 100 µM. With `Clc1ccc(-c2cn3c(nc4ccccc43)c(/C=C/c3ccco3)n2)cc1` the GI50 was inactive: > 100 µM. In the case of `COc1cc(NC(C)=O)ccc1C(=O)N/N=C/c1ccco1`, the GI50 is reported as inactive: > 100 µM. In the case of `COc1ccccc1NC(=O)CC(=O)n1nc(C)c(/N=N/c2ccccc2F)c1C`, the GI50 is reported as inactive: > 100 µM. With `O=C(N[C@H]1CC2(C=C(I)C(=O)C(I)=C2)OC1=O)OCc1ccccc1` the GI50 was inactive: 39.8 µM. In the case of `CCOC(=O)c1cc(NC(=O)N(CCC#N)CCN(C(=O)N[C@@H](Cc2ccccc2)C(=O)N[C@@H](CC(C)C)C(=O)NC)c2ccccc2)ccc1OC`, the GI50 is reported as inactive: 79.8 µM. For `Cc1ccc(C2OC(COCc3ccc(Cl)cc3)C(OCc3ccc(Cl)cc3)C2O)cc1` (stereo unspecified), the GI50 was inactive: 16.6 µM. `Nc1ccc(CCSSCCc2ccc(N)cc2)cc1` was tested, and the GI50 was inactive: 5.06 µM. With `CNC(=S)/C(C#N)=C(\N)N1CCN(C)CC1` the GI50 was inactive: > 100 µM. In the case of `COc1ccc2c(c1)-c1c(c3cc(OC)ccc3n1CCN1CCOCC1)CC2`, the GI50 is reported as inactive: 64 µM. In the case of `O=P1(O)c2ccccc2CSCc2ccccc21`, the GI50 is reported as inactive: > 100 µM. For `CCOP(=O)(OCC)/C(C#N)=C/c1nccn1C`, the GI50 was inactive: > 100 µM. `CC(C)C12C=CC(C)(CC1)n1c(=O)c3cc4ccccc4cc3c(=O)n12` (stereo unspecified) was tested, and the GI50 was inactive: > 100 µM. `CN(C)CC1CCCC(CN2CCCCC2)C1=O` (stereo unspecified) was tested, and the GI50 was inactive: > 100 µM. `COc1ccccc1NC(=O)C(=O)Cc1cnc2ccccc2n1` was tested, and the GI50 was inactive: > 100 µM. For `CCCCCCCCCCCCCOCCOCCOCCCCC(O)CCCCCCCCCC1=C[C@H](C)OC1=O` (stereo partly specified), the GI50 was inactive: 16.8 µM. In the case of `CCN(CC)c1ncnc2c1ncn2CCNC(CO)(CO)CO`, the GI50 is reported as inactive: > 100 µM. In the case of `COc1ccc(/C=N/n2c(C)n[nH]c2=O)cc1`, the GI50 is reported as inactive: > 100 µM. With `C=C1[C@@H](OC(C)=O)[C@H]2[C@@H](OC(C)=O)[C@@](C)(OC(C)=O)C[C@]2(OC(C)=O)C(=O)[C@@H](C)/C=C/C(C)(C)C(=O)C[C@H]1OC(C)=O` the GI50 was inactive: > 100 µM. `CC(=O)OC1COC(N2C(=O)C(=O)c3c(C)cc(Cl)nc32)C(OC(C)=O)C1OC(C)=O` (stereo unspecified) was tested, and the GI50 was inactive: > 100 µM. For `Cc1ccc(-c2nc3c(C(=O)NCCN(C)C)cccc3[nH]2)cc1`, the GI50 was inactive: 14.9 µM. With `COc1ccc(CNc2nc(NCc3ccc(OC)cc3)nc(Nc3ccccc3)n2)cc1` the GI50 was inactive: 5 µM. With `CN(C)CCNc1ccc2ncnc3c2c1C(=O)c1ccccc1-3` the GI50 was active: 0.341 µM. For `C=C(C)C1CCC2(CO)C(O)CC3(C)C(CCC4C5(C)CCC(O)C(C)(C)C5CCC43C)C12` (stereo unspecified), the GI50 was inactive: 10.9 µM. For `c1ccc2c(-c3csc(-c4c[nH]c5ccccc45)n3)c[nH]c2c1`, the GI50 was inactive: > 100 µM. With `c1ccc2c(CNCCCN3CCN(CCCNCc4cccc5ccccc45)CC3)cccc2c1` the GI50 was inactive: 1.9 µM. With `O=C(NCCc1ccc(F)cc1)c1cc(/C=C/c2cc(O)ccc2O)ccc1O` the GI50 was inactive: 12.7 µM. With `COc1cc(-c2oc3c(OC)cc(OC)c(O)c3c(=O)c2OC)cc(OC)c1OC` the GI50 was inactive: 71.9 µM. For `O=c1c(C(c2cnc3ccccc3c2)c2c(O)oc3ccccc3c2=O)c(O)oc2ccccc12`, the GI50 was inactive: 37.7 µM.
